Laboratory results reported in the supplement of paper PMC4967469.
The IC50 comes from the fitted curve, where viability falls to half of the control; fits outside the tested doses are given as limits. The AUC spans the tested range (256-fold, ending at the top dose) of the same fit; values near 1 show little effect. The top dose, if marked as inferred, is not printed in the source and was worked back from the curve model.

Compound: O=C1NC(=O)/C(=C\c2ccc3nccnc3c2)S1 [AS605240]
Test: Viability of human cancer cell lines after 72 h of drug (GDSC screen)
Settings: top dose inferred
Procedure: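 Human cancer cell lines in 384-well plates, medium with 10% serum, drug for 72 h over a 256-fold dose range (nine 2-fold or five 4-fold steps up to the top dose). Adherent lines were fixed and stained with the nucleic acid dye Syto60, suspension lines read with resazurin; signal relative to control wells, capped at 0 and 100%. One two-parameter sigmoid per drug and line, fitted in a mixed model over all curves with the slope shared within a line.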

| Cell Line | AUC | IC50 [µM] |
| --- | --- | --- |
| ARH-77 (myeloma, suspension, top dose 20 µM) | 0.766 | 7.14 |
| SNU-449 (liver, adherent, top dose 20 µM) | 0.764 | 7.92 |
| MEL-JUSO (melanoma, adherent, top dose 20 µM) | 0.604 | 2.49 |
| TGBC24TKB (biliary tract, adherent, top dose 20 µM) | 0.987 | > 20 |
| LN-405 (glioma, adherent, top dose 20 µM) | 0.873 | > 20 |
| CAL-78 (chondrosarcoma, adherent, top dose 20 µM) | 0.986 | > 20 |
| HSC-39 (stomach, suspension, top dose 20 µM) | 0.981 | > 20 |
| PE/CA-PJ15 (head and neck, adherent, top dose 20 µM) | 0.949 | > 20 |
| HCT-116 (large intestine, adherent, top dose 20 µM) | 0.66 | 3.39 |
| NCI-H661 (large cell lung carcinoma, adherent, top dose 20 µM) | 0.86 | > 20 |
| HCC1806 (breast, adherent, top dose 20 µM) | 0.934 | > 20 |
| NOMO-1 (acute myeloid leukaemia, suspension, top dose 20 µM) | 0.534 | 1.57 |
| HUTU-80 (digestive system, adherent, top dose 20 µM) | 0.696 | 3.97 |
| NCI-H64 (small cell lung carcinoma, suspension, top dose 20 µM) | 0.91 | 15 |
| RH-41 (rhabdomyosarcoma, adherent, top dose 20 µM) | 0.966 | > 20 |
| G-402 (soft tissue, adherent, top dose 20 µM) | 0.811 | 15.3 |
| HCC1395 (breast, adherent, top dose 20 µM) | 0.983 | > 20 |
| KLE (endometrium, adherent, top dose 20 µM) | 0.954 | > 20 |
| KU-19-19 (bladder, adherent, top dose 20 µM) | 0.516 | 1.38 |
| SJSA-1 (bone, adherent, top dose 20 µM) | 0.831 | 15 |
| Hs766T (pancreas, adherent, top dose 20 µM) | 0.962 | > 20 |

| Cell Line | AUC | IC50 [µM] |
| --- | --- | --- |
| VMRC-RCZ (kidney, adherent, top dose 20 µM) | 0.909 | > 20 |
| NCI-H2405 (lung adenocarcinoma, adherent, top dose 20 µM) | 0.453 | 0.917 |
| H4 (glioma, adherent, top dose 20 µM) | 0.909 | > 20 |
| MOLP-8 (myeloma, suspension, top dose 20 µM) | 0.542 | 1.61 |
| CAL-120 (breast, adherent, top dose 20 µM) | 0.864 | > 20 |
| NCI-H716 (large intestine, suspension, top dose 20 µM) | 0.973 | > 20 |
| DMS-114 (small cell lung carcinoma, adherent, top dose 20 µM) | 0.94 | > 20 |
| HT-1197 (bladder, adherent, top dose 20 µM) | 0.929 | > 20 |
| KURAMOCHI (ovary, adherent, top dose 20 µM) | 0.665 | 3.88 |
| COR-L321 (lung, suspension, top dose 20 µM) | 0.791 | 8.95 |
| DU-145 (prostate, adherent, top dose 20 µM) | 0.984 | > 20 |
| TGW (neuroblastoma, adherent, top dose 20 µM) | 0.794 | 7.76 |
| SU-DHL-8 (B-cell lymphoma, suspension, top dose 20 µM) | 0.49 | 1.18 |
| HT (B-cell lymphoma, suspension, top dose 20 µM) | 0.898 | > 20 |
| CCK-81 (large intestine, adherent, top dose 20 µM) | 0.901 | > 20 |
| OCUM-1 (stomach, adherent, top dose 20 µM) | 0.953 | > 20 |
| LAN-6 (neuroblastoma, adherent, top dose 20 µM) | 0.875 | > 20 |
| U031 (kidney, adherent, top dose 20 µM) | 0.893 | > 20 |
| ST486 (Burkitt lymphoma, suspension, top dose 20 µM) | 0.815 | 9.43 |
| KNS-81-FD (glioma, adherent, top dose 20 µM) | 0.908 | > 20 |
| HT-1376 (bladder, adherent, top dose 20 µM) | 0.86 | > 20 |

| Cell Line | AUC | IC50 [µM] |
| --- | --- | --- |
| WM-115 (melanoma, adherent, top dose 20 µM) | 0.832 | 17 |
| PL18 (pancreas, adherent, top dose 20 µM) | 0.845 | 14.4 |
| NCI-H510A (small cell lung carcinoma, semi-adherent, top dose 20 µM) | 0.959 | > 20 |
| HCT-15 (large intestine, adherent, top dose 20 µM) | 0.808 | 11.1 |
| BL-41 (Burkitt lymphoma, suspension, top dose 20 µM) | 0.868 | 11.4 |
| T-24 (bladder, adherent, top dose 20 µM) | 0.858 | 15.3 |
| MFM-223 (breast, adherent, top dose 20 µM) | 0.896 | > 20 |
| COLO-684 (endometrium, suspension, top dose 20 µM) | 0.852 | 18.6 |
| JAR (urogenital system, adherent, top dose 20 µM) | 0.933 | > 20 |
| PCI-30 (head and neck, adherent, top dose 20 µM) | 0.974 | > 20 |
| SW1573 (lung adenocarcinoma, adherent, top dose 20 µM) | 0.805 | 14.6 |
| UWB1.289 (ovary, adherent, top dose 20 µM) | 0.934 | > 20 |
| H2731 (mesothelioma, adherent, top dose 20 µM) | 0.668 | 3.95 |
| SNU-C1 (large intestine, suspension, top dose 20 µM) | 0.945 | > 20 |
| KCL-22 (chronic myeloid leukaemia, suspension, top dose 20 µM) | 0.811 | 8.59 |
| HSC-4 (head and neck, adherent, top dose 20 µM) | 0.939 | > 20 |
| DSH1 (bladder, adherent, top dose 20 µM) | 0.982 | > 20 |
| NCI-H1437 (lung adenocarcinoma, adherent, top dose 20 µM) | 0.589 | 2.21 |
| A172 (glioma, adherent, top dose 20 µM) | 0.9 | > 20 |
| OSC-20 (head and neck, adherent, top dose 20 µM) | 0.876 | > 20 |
| SNU-81 (large intestine, adherent, top dose 20 µM) | 0.605 | 2.69 |

| Cell Line | AUC | IC50 [µM] |
| --- | --- | --- |
| SW13 (adrenal gland, adherent, top dose 20 µM) | 0.988 | > 20 |
| JSC-1 (B-cell lymphoma, suspension, top dose 20 µM) | 0.481 | 1.11 |
| LU-99A (large cell lung carcinoma, adherent, top dose 20 µM) | 0.891 | > 20 |
| NK-92MI (lymphoid neoplasm, suspension, top dose 20 µM) | 0.858 | 14.6 |
| LS-513 (large intestine, adherent, top dose 20 µM) | 0.965 | > 20 |
| TE-441-T (rhabdomyosarcoma, adherent, top dose 20 µM) | 0.889 | > 20 |
| SW1417 (large intestine, adherent, top dose 20 µM) | 0.764 | 8.44 |
| RXF393 (kidney, adherent, top dose 20 µM) | 0.978 | > 20 |
| SK-MM-2 (myeloma, suspension, top dose 20 µM) | 0.867 | 19.5 |
| BC-3 (B-cell lymphoma, suspension, top dose 20 µM) | 0.937 | > 20 |
| SF126 (glioma, adherent, top dose 20 µM) | 0.904 | > 20 |
| EW-11 (Ewing sarcoma, adherent, top dose 20 µM) | 0.711 | 5.94 |
| FLO-1 (oesophagus, adherent, top dose 20 µM) | 0.881 | > 20 |
| OVK-18 (ovary, adherent, top dose 20 µM) | 0.938 | > 20 |
| STS-0421 (soft tissue, adherent, top dose 20 µM) | 0.973 | > 20 |
| EW-18 (Ewing sarcoma, suspension, top dose 20 µM) | 0.829 | 13.6 |
| PANC-04-03 (pancreas, adherent, top dose 20 µM) | 0.956 | > 20 |
| PA-TU-8988T (pancreas, adherent, top dose 20 µM) | 0.872 | 19.2 |
| SKN (uterus, adherent, top dose 20 µM) | 0.98 | > 20 |
| OV-56 (ovary, adherent, top dose 20 µM) | 0.989 | > 20 |
